Source: paper PMC4336329 (PLoS ONE, 2015)
Screen size: about 310,000 compounds; about 14,000 (4.5%) showed an effect of 50% or more. Effects have a minus sign here. Some of the results follow.

Biological target: human ether-à-go-go-related gene (hERG) potassium channel (human, UniProt Q12809)
Experiment: primary screen, population patch clamp on CHO cells stably expressing hERG
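Note: peak tail current of the secondary pulse compared with the same well before compound.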

Sequence of human ether-à-go-go-related gene (hERG) potassium channel (Q12809 whole entry, looked up): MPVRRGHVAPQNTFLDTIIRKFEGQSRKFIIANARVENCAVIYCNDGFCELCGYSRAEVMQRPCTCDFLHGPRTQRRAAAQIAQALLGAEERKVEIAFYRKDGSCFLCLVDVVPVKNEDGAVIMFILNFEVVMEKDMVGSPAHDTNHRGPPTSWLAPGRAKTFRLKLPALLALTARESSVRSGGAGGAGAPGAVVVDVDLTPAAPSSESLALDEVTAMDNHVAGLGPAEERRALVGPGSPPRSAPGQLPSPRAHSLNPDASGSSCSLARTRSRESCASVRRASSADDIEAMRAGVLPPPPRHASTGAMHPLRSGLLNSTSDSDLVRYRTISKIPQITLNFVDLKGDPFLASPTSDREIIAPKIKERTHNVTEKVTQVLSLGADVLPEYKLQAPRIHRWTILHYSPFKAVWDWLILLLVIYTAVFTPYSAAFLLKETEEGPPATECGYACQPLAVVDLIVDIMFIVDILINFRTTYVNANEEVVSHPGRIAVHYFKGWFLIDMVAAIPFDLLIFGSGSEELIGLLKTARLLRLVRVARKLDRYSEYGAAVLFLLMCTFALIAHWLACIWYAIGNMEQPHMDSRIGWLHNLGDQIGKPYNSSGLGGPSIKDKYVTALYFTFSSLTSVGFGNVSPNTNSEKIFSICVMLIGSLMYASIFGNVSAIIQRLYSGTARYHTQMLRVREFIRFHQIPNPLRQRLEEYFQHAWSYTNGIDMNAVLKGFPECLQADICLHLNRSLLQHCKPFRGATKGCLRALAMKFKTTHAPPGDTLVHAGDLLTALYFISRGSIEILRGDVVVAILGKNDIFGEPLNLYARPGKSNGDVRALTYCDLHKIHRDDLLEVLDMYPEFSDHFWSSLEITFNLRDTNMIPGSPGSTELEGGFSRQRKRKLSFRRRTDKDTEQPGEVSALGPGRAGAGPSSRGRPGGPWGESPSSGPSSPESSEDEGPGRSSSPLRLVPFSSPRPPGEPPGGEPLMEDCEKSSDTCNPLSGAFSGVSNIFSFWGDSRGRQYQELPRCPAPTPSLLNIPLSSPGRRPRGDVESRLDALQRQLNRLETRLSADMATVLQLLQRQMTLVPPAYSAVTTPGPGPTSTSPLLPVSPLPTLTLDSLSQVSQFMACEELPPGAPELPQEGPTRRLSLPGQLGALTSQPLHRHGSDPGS

In order of rising “hERG current change (%, negative = inhibition) at 10uM” value:
1. O=C(CN1CCC(Cc2ccccc2)CC1)N1CCc2ccccc2C1  -69.3%
2. O=C(Nc1ccc2c(c1)OCCO2)C1CCN(C(=O)c2ccc([N+](=O)[O-])cc2)CC1  -65.6%
3. O=c1c2ccccc2oc2ccc(NCCCN3CCOCC3)cc12  -41.9%
4. O=C(CCCN=C1NS(=O)(=O)c2ccccc21)OCC(=O)c1ccc(F)cc1  -32.3%
5. Cc1cccc(NC(=O)CSCC(=O)N2CCN(C(=O)c3ccco3)CC2)c1  -30.5%
6. Cc1ccc(NC(=O)/C(=C\c2cccnc2)NC(=O)c2ccco2)cc1  -28.5%
7. Cc1cccc(CSCCNC(=O)c2ccc(CN3CCOCC3)cc2)c1  -28.3%
8. COc1ccc(C2/C=C\CN(CC3CC3)CC(=O)N2Cc2ccc(F)cc2)cc1 (stereo not shown)  -21%
9. O=C(O)C(=O)O.c1ccc(CNc2nc(CN3CCOCC3)nc3scc(-c4ccccc4)c23)cc1  -20.6%
10. CC(C)NC(=O)COc1cccc2ccccc12  -18.7%
11. COc1ccc2cc(C(=O)C3CCCN(C(=O)/C=C/c4ccccn4)C3)ccc2c1 (stereo not shown)  -18.3%
12. COc1cccc(-c2ccc(=O)n(CC(=O)Nc3ccc(C(=O)N4CCCC4)cc3)n2)c1  -15.4%
13. COc1cccc(CN(C)C(=O)C(Cc2ccccc2)NC(=O)c2ccccc2)c1OC (stereo not shown)  -12.9%
14. Cc1ccc(C(=O)N2CCN3C(=O)c4ccccc4C23c2ccccc2)cc1 (stereo not shown)  -12.8%
15. CCc1cc(=O)oc2cc(OCC=C(C)C)ccc12  -11.4%
16. CCN(CC)S(=O)(=O)N1CCC(C(=O)NCC2COc3ccccc3O2)CC1 (stereo not shown)  -10.9%
17. NC(=O)COC(=O)c1cc(-c2cccs2)nn1-c1ccccc1  -9.72%
18. O=C(NCc1ccc2c(c1)OCO2)c1ccc(S(=O)(=O)NCC2CCCO2)cc1 (stereo not shown)  -9.62%
19. Nn1c(SC/C=C/c2ccccc2)nnc1-c1ccncc1  -8.06%
20. COc1ccc2c(c1OC)C[N+]1([O-])CCc3cc4c(cc3C1C2)OCO4 (stereo not shown)  -7.89%
21. CC(C)(C)C1=Nn2c(nnc2-c2n[nH]c3c2CCC3)SC1  -7.6%
22. Cc1cnc(C(=O)Nc2ccc(-n3cnnn3)cc2)cn1  -7.49%
23. CN(C)S(=O)(=O)c1ccc(N2CCCC2)c(C(=O)NNC(=O)COc2cccc(F)c2)c1  -6.57%
24. CCOc1ccc(S(=O)(=O)N2CCN(C(=O)Cc3ccc(S(=O)(=O)N4CCOCC4)s3)CC2)cc1  -6.03%
25. COc1ccc(CCNC(=O)CC2SC(=NCCC(C)C)NC2=O)cc1OC (stereo not shown)  -5.09%
26. CCOC(=O)N/N=C(\C)c1ccc(C)c([N+](=O)[O-])c1  -4.33%
27. OC(CNCc1ccccn1)c1ccccc1 (stereo not shown)  -3.94%
28. C/C(CC(=O)Nc1ccc(N(C)C)cc1)=N\NC(=O)C(=O)NCc1ccccc1  -1.15%
29. COc1ccc(-c2nnc(SCC(=O)c3ccc[nH]3)n2-c2ccccc2)cc1  -0.875%
30. Cc1cccc2c(=O)c(C(=O)N3CCCCCC3)c[nH]c12  -0.176%
31. Nc1c(C(=O)NC23CC4CC(CC(C4)C2)C3)sc2nc3c(c(C(F)(F)F)c12)CCC3  0.00528%
32. CC(=O)N1c2ccc(S(=O)(=O)N3CCC(C(=O)Nc4cc(C)cc(C)c4)CC3)cc2CC1C (stereo not shown)  2%
33. Cc1cc(OCC(=O)Nc2ccc(CN3CCOCC3)cc2)c2c(C)cc(=O)oc2c1  4.32%
34. C=CCN1C(=Nc2cccnc2)SCC1(O)c1ccc(C)cc1 (stereo not shown)  4.64%
35. CC(=O)Nc1ccccc1C(=O)N1CCN(Cc2ccccc2)CC1  5.02%
36. O=C(CSc1nnc(-c2ccc(C(F)(F)F)cn2)o1)Nc1cccc(Cl)c1  5.72%
37. COC(=O)C(CCSC)NC(=O)c1cn(-c2ccc(OC)cc2)c(=O)c2ccccc12 (stereo not shown)  6.24%
38. Cc1cccc(C)c1NC(=S)N/N=C/c1ccc(C(=O)O)cc1  6.79%
39. c1ccc(Sc2cnc3ccccc3n2)cc1  7.23%
40. Cc1ccc(NC(=O)C2CCN(S(=O)(=O)c3ccc4c(c3)oc(=O)n4C)CC2)cc1  10.1%
41. CCS(=O)(=O)c1nc2ccccc2n1CC(=O)N1CCOCC1  10.8%
42. O=C(Nc1ccccc1F)Nc1cccc2ccc(O)cc12  11.4%
43. Cc1ccc(NCC(=O)N/N=C/c2c[nH]c3ccccc23)cc1  11.4%
44. COc1ccccc1-n1c([S-])c(C(=O)Nc2ccccc2C(F)(F)F)[n+]2ccc(C(=O)NCCO)cc12  11.7%
45. O=S(=O)(Nc1cccnc1Cl)c1ccc(F)cc1  12.5%
46. CCc1ccc(C(=O)NNC(=O)c2n[nH]c(=O)c3ccccc23)cc1  13.6%
47. CN(C)c1cc(=O)n2c(n1)SCCC2  14.1%
48. Cc1ccsc1/C=N\NC(=O)CC(=O)NCc1ccccc1  14.2%
49. COc1ccc2oc(=O)c(C(=O)N3CCCC3)cc2c1  14.7%
50. CCOC(=O)N1CCN(C(=O)c2cc3ccccc3o2)CC1  17.7%
51. CCOC(CNc1ncnc2c1cnn2C)OCC  20.1%
52. CC(=O)N1c2ccc(Cl)cc2C2C=CCC2C1c1cccc2ccccc12 (stereo not shown)  20.3%
53. O=C(Cc1ccccc1[N+](=O)[O-])Nc1ccccc1C(=O)N1CCCC1  23.2%
54. COc1ccc(/C=N\NC(=O)CCc2c(C)n[nH]c2C)c(OC)c1OC  24.7%
55. CC1=C(C(=O)OCC2CCCO2)C(c2ccncc2)C2=C(CCCC2=O)N1 (stereo not shown)  33.1%
